Measurements taken from article PMC10726135.
Some of the results follow. At the low end of the ranking, values are background and their order means little. Measured with an extract: partners may take part in the binding.

biological target: T1, HNF4alpha8 (COS-7 nuclear extract) (UniProt P41235-5); assay: protein-binding microarray; details: COS-7 nuclear extract on double-stranded Agilent 4x180k PBM; binding buffer, salt, pH and temperature not given; high values mean tight binding; double strand, one strand shown; sequences stand for … in …GCCTAGGGAGATTAGAGTATCGGTCGA
T1 sequence: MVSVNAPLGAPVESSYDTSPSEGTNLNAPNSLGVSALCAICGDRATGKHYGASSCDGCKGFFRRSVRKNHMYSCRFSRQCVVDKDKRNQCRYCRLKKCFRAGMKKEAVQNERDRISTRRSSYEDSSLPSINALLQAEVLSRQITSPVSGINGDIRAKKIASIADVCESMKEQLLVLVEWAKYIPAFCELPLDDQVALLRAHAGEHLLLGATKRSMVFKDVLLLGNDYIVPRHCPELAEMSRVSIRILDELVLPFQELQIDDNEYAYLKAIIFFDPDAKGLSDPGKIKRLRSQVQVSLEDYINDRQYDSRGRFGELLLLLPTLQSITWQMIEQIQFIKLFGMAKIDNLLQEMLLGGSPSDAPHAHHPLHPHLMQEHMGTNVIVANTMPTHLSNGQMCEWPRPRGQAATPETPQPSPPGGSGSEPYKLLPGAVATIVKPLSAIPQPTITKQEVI

Q: How did the binding signal (log2 normalized intensity) turn out when GTGACTAAATGAGAAGAAATGATGGGTGCC was run?
A: The binding signal (log2 normalized intensity) was -1.35.

Q: Which binding signal (log2 normalized intensity) does the source give for GAGTGATCCTGAAAACAAATAGAGCAGACT here?
A: Its binding signal (log2 normalized intensity) is -1.38.

Q: Which binding signal (log2 normalized intensity) does the source give for ACTAGCCAAACAGGTTGGGGAGGTTTGGCT here?
A: The binding signal (log2 normalized intensity) was -0.859.

Q: CTTGTGATTACACTGGGCTCACCTGAATGA was tested. Which binding signal (log2 normalized intensity) did it give?
A: Its binding signal (log2 normalized intensity) is -1.08.

Q: Which binding signal (log2 normalized intensity) does the source give for GCCTGGGAAAATGTTGATTACGTGTTCCCA here?
A: The binding signal (log2 normalized intensity) was 1.01.

Q: Which binding signal (log2 normalized intensity) does the source give for ATCTTGCCTGTTGTATGGTTTTGTGCTAGA here?
A: The binding signal (log2 normalized intensity) was 1.35.

Q: For AACACTTTCTAAGGACACAACAGAATGTGA, which binding signal (log2 normalized intensity) is on record?
A: Its binding signal (log2 normalized intensity) is -0.0772.

Q: TCTGCAAACACCCCTCCCCCACACAGACAA was tested. Which binding signal (log2 normalized intensity) did it give?
A: Its binding signal (log2 normalized intensity) is 5.11.

Q: Which binding signal (log2 normalized intensity) does the source give for GGAGTTTCAGAGGACTGCCCAGCTGCATCC here?
A: Its binding signal (log2 normalized intensity) is -1.2.

Q: TGAACACTTCTTTGTTACTTACAGACTTTC was tested. Which binding signal (log2 normalized intensity) did it give?
A: Its binding signal (log2 normalized intensity) is 0.669.

Q: How did the binding signal (log2 normalized intensity) turn out when CAGTTTCTCTGTGAATCCACAGTAAAACAT was run?
A: The binding signal (log2 normalized intensity) was -1.22.

Q: With CCAGGCAGCACAATTTGTGTCTCTCACCTG as the sequence, how does the binding signal (log2 normalized intensity) read?
A: Its binding signal (log2 normalized intensity) is -1.33.

Q: For GAGGGCTGCTTATCTAGGATGAGAATCCAC, which binding signal (log2 normalized intensity) is on record?
A: Its binding signal (log2 normalized intensity) is -1.18.

Q: Which binding signal (log2 normalized intensity) does the source give for CAACCACACCAACATGGACTTTGTCACAAG here?
A: The binding signal (log2 normalized intensity) was 6.62.

Q: Which binding signal (log2 normalized intensity) does the source give for GAAAAAACCCATCCACCCATCCAAAGGTCA here?
A: Its binding signal (log2 normalized intensity) is 5.42.

Q: Which binding signal (log2 normalized intensity) does the source give for GTGAGAAGGGGTAGTGATCCTGGTAGGGGG here?
A: The binding signal (log2 normalized intensity) was -1.25.

Q: With CTGATCTTAAGTTGTACCTGACTAAAACCT as the sequence, how does the binding signal (log2 normalized intensity) read?
A: The binding signal (log2 normalized intensity) was -0.461.

Q: With TGCAGCAGCATCCAGCCCCAGGCTGAGCGT as the sequence, how does the binding signal (log2 normalized intensity) read?
A: The binding signal (log2 normalized intensity) was -1.42.

Q: Which binding signal (log2 normalized intensity) does the source give for GATACAGCATGGCCCAGGGACTCAGGCACA here?
A: The binding signal (log2 normalized intensity) was -1.3.

Q: Which binding signal (log2 normalized intensity) does the source give for GGTAAAATAAGGCTGCGACCTGCTGGGCTG here?
A: The binding signal (log2 normalized intensity) was -1.17.

Q: For TCCAGAAAGCAACAAAAACCAAATCACAAT, which binding signal (log2 normalized intensity) is on record?
A: Its binding signal (log2 normalized intensity) is -1.36.

Q: How did the binding signal (log2 normalized intensity) turn out when CTGGAGATAATAGTGGCTGAAAGTACTGGC was run?
A: Its binding signal (log2 normalized intensity) is -1.29.

Q: With TGGGTATAGGCGCGCGTGTGTGTGTGTGTG as the sequence, how does the binding signal (log2 normalized intensity) read?
A: The binding signal (log2 normalized intensity) was 2.66.

Q: For GGGCACTGCCCTTTGGAACCTGCCCTCTGT, which binding signal (log2 normalized intensity) is on record?
A: Its binding signal (log2 normalized intensity) is 5.74.

Q: For ATGCCCGGCCGACGTGACCCGCCGCCCGAG, which binding signal (log2 normalized intensity) is on record?
A: The binding signal (log2 normalized intensity) was 2.02.

Q: AGATGGTCAGTGAACTGTGGTTGACAGGCA was tested. Which binding signal (log2 normalized intensity) did it give?
A: Its binding signal (log2 normalized intensity) is 1.01.

Q: TACCCTACCTGTTTGCAAGCCCAAAGCCCC was tested. Which binding signal (log2 normalized intensity) did it give?
A: Its binding signal (log2 normalized intensity) is 2.67.

Q: How did the binding signal (log2 normalized intensity) turn out when GCATTCCAAGTGAGTAAGGAAAGCCACTTC was run?
A: The binding signal (log2 normalized intensity) was -1.26.

Q: Which binding signal (log2 normalized intensity) does the source give for TCCAGAAATACTTGTTATATTGGATAGTGC here?
A: Its binding signal (log2 normalized intensity) is 1.38.

Q: With GCCTGCCCTTCGCTCCCCGACCTCCTGCTG as the sequence, how does the binding signal (log2 normalized intensity) read?
A: Its binding signal (log2 normalized intensity) is 2.62.

Q: Which binding signal (log2 normalized intensity) does the source give for AAATTCCGGGGCTGGAATTTGAACCCAAGC here?
A: The binding signal (log2 normalized intensity) was 6.43.

Q: CATGCCAGGATGGGCTCCTGCCTTGGAGAA was tested. Which binding signal (log2 normalized intensity) did it give?
A: The binding signal (log2 normalized intensity) was -1.35.

Q: With TCAGCCTGCAAGTTAGGACAGCCCCAGGCC as the sequence, how does the binding signal (log2 normalized intensity) read?
A: The binding signal (log2 normalized intensity) was -1.2.

Q: How did the binding signal (log2 normalized intensity) turn out when CCTGGTAAGTTCCACTGCATCAGTGCTGAC was run?
A: Its binding signal (log2 normalized intensity) is -1.4.

Q: GTCAACTCCTCCAAGCCACCTTCCCGGCCT was tested. Which binding signal (log2 normalized intensity) did it give?
A: The binding signal (log2 normalized intensity) was -1.12.

Q: How did the binding signal (log2 normalized intensity) turn out when GACTGCAAAATAGACAAACAGCAATAGCAA was run?
A: Its binding signal (log2 normalized intensity) is -1.28.

Q: How did the binding signal (log2 normalized intensity) turn out when GGAGTCCAGAGTTCAGGTAGAGGGATTCCC was run?
A: The binding signal (log2 normalized intensity) was 2.41.

Q: Which binding signal (log2 normalized intensity) does the source give for GACGATGGTTTTCCAATCTGGTGAAAGATG here?
A: The binding signal (log2 normalized intensity) was 0.739.

Q: For AGGGAGGTAGTCGCCCTCCGTCGTGGCCTG, which binding signal (log2 normalized intensity) is on record?
A: Its binding signal (log2 normalized intensity) is -0.766.

Q: For GGCTTCCATTCTCAGGCAGATGGGCAGCAC, which binding signal (log2 normalized intensity) is on record?
A: Its binding signal (log2 normalized intensity) is -1.38.

Q: Which binding signal (log2 normalized intensity) does the source give for CTTTCCTGGTGCCTCCTTATCTCCCCAACT here?
A: The binding signal (log2 normalized intensity) was 3.48.

Q: AAGCCTTTGAACTGTGTTGCAAATTATTAC was tested. Which binding signal (log2 normalized intensity) did it give?
A: Its binding signal (log2 normalized intensity) is 1.49.

Q: Which binding signal (log2 normalized intensity) does the source give for CAGTCATGGAGGCATCATAAACTCCAACTC here?
A: The binding signal (log2 normalized intensity) was -1.2.

Q: With GCCAATCTGCTTAAAGGCAAAGTCCAGAAC as the sequence, how does the binding signal (log2 normalized intensity) read?
A: The binding signal (log2 normalized intensity) was 4.75.

Q: How did the binding signal (log2 normalized intensity) turn out when TATGTTAATGGCAGAATCAAAGGTCAAAAT was run?
A: The binding signal (log2 normalized intensity) was 5.17.

Q: With AGTTGCTCAAACCAACATTATTAGCAGCAG as the sequence, how does the binding signal (log2 normalized intensity) read?
A: Its binding signal (log2 normalized intensity) is -1.39.

Q: For CTGGTGTAGTGGGGAGGGCATGGACTTTGG, which binding signal (log2 normalized intensity) is on record?
A: Its binding signal (log2 normalized intensity) is 6.38.

Q: Which binding signal (log2 normalized intensity) does the source give for TTGCTATGCAAACAGACTGGCGGCGTTTCG here?
A: The binding signal (log2 normalized intensity) was -1.42.

Q: Which binding signal (log2 normalized intensity) does the source give for GCGCAAACTATCTAAACAGACTAGTACAAC here?
A: The binding signal (log2 normalized intensity) was -1.1.

Q: For GAGAGGACTACAGGCCCTGCATTTTTAGGC, which binding signal (log2 normalized intensity) is on record?
A: The binding signal (log2 normalized intensity) was -1.32.

Q: With GCCCTGAGCCAAGGGAGCACAACCCGGGCG as the sequence, how does the binding signal (log2 normalized intensity) read?
A: Its binding signal (log2 normalized intensity) is -1.3.

Q: For TTAAGATGATATAGCTGTTCATTAGACTCA, which binding signal (log2 normalized intensity) is on record?
A: The binding signal (log2 normalized intensity) was 1.37.

Q: How did the binding signal (log2 normalized intensity) turn out when GCACCTTTTAAAATAGATAAGTCCCTAAGA was run?
A: The binding signal (log2 normalized intensity) was -1.29.

Q: How did the binding signal (log2 normalized intensity) turn out when CAGGTCCAAGGTTCTCCAGGGACCCCCCGA was run?
A: The binding signal (log2 normalized intensity) was 3.91.

Q: TTCCCTCGACTTCCTCTTCATATCAGTAAA was tested. Which binding signal (log2 normalized intensity) did it give?
A: Its binding signal (log2 normalized intensity) is 0.77.

Q: CTGAAAGCAAACAATGATGAAAGGAGCTTG was tested. Which binding signal (log2 normalized intensity) did it give?
A: The binding signal (log2 normalized intensity) was -1.07.

Q: How did the binding signal (log2 normalized intensity) turn out when TCCCTCTGCTCCCCTGGCCTCACCCTTGTC was run?
A: Its binding signal (log2 normalized intensity) is 2.7.

Q: For GCTTTCTTTCCTAATGGTACCATCTGCCAC, which binding signal (log2 normalized intensity) is on record?
A: The binding signal (log2 normalized intensity) was 0.799.

Q: Which binding signal (log2 normalized intensity) does the source give for AGGCTGCCGTCCTCAGTGAATCACAGCAGC here?
A: The binding signal (log2 normalized intensity) was -1.26.

Q: With CTTCAAGTCAGTCAAAATGAATAGTCCTTT as the sequence, how does the binding signal (log2 normalized intensity) read?
A: The binding signal (log2 normalized intensity) was 0.855.

Q: How did the binding signal (log2 normalized intensity) turn out when AGAGAAGATAATGGATTGGGGGCCATGTCT was run?
A: Its binding signal (log2 normalized intensity) is -1.13.

Q: Which binding signal (log2 normalized intensity) does the source give for CTGGCTAAACCAGCCTAACAGGATTTTTGC here?
A: Its binding signal (log2 normalized intensity) is -1.3.

Q: Which binding signal (log2 normalized intensity) does the source give for AGTCTGGTGGCAAGTACCCTTTATCCCTCA here?
A: The binding signal (log2 normalized intensity) was 1.51.

Q: Which binding signal (log2 normalized intensity) does the source give for TCAGAGCAGGTGAACGACTTGACAAAGGTC here?
A: Its binding signal (log2 normalized intensity) is 4.1.

Q: With GTCTGGCTGACTAACAAGCTGCCAAACTCT as the sequence, how does the binding signal (log2 normalized intensity) read?
A: The binding signal (log2 normalized intensity) was -1.31.

Q: With TTATCATTCTAGAGGTCAGAAGTCCAAAAT as the sequence, how does the binding signal (log2 normalized intensity) read?
A: The binding signal (log2 normalized intensity) was 5.5.

Q: How did the binding signal (log2 normalized intensity) turn out when AAACATAAAGGCAAAGGTCAAGGACTGTTC was run?
A: The binding signal (log2 normalized intensity) was 4.18.

Q: With CTCTCTGATTACACAGGCCTTATAGGGCAT as the sequence, how does the binding signal (log2 normalized intensity) read?
A: The binding signal (log2 normalized intensity) was 0.758.

Q: For GGGAGGGCACAGGTCAAAAATGATGCCTGA, which binding signal (log2 normalized intensity) is on record?
A: The binding signal (log2 normalized intensity) was 1.06.

Q: GTGTGGATACGATGACATCATCTGTTTGTA was tested. Which binding signal (log2 normalized intensity) did it give?
A: Its binding signal (log2 normalized intensity) is 0.746.

Q: CAAGGGTCAGTTCATTAAAAAAAAAAAAAA was tested. Which binding signal (log2 normalized intensity) did it give?
A: Its binding signal (log2 normalized intensity) is 0.208.

Q: How did the binding signal (log2 normalized intensity) turn out when TGGCATGTGATAGGCATGCAAACTTTGTTT was run?
A: The binding signal (log2 normalized intensity) was 0.31.
